Data from patent US20180318381A1, “Methods of Treatment of Rhabdomyolysis” (University of Pittsburgh - Of the Commonwealth System of …, priority 2015, published 2018).

Test system: patients with LC-FAODs
Conditions: after initiation vs before-treatment period; n=16 subjects >6 months of age; P=0.1126

CCCCCCC(=O)OCC(COC(=O)CCCCCC)OC(=O)CCCCCC [triheptanoin, 1,3-di(heptanoyloxy)propan-2-yl heptanoate]
lower hospitalization event rate (trend): 35%
